Test results as given in PubChem BioAssay AID504466 (National Center for Advancing Translational Sciences (NCATS), 2011).
The whole screen tested about 330,000 compounds, of which about 4,200 (1.3%) were called active. This list was built around the results that the source calls inconclusive (neither active nor inactive); the mix of calls is not that of the screen. Calls come from the whole dose curve; as a rule, active = well fitted activation curve with a large enough effect; inconclusive = small, poorly fitted or top-dose-only effect; inactive = no such curve, though single readings can be large or run the other way. A potency beside an inconclusive call is a rough fit, not a confirmed value.

Assay: qHTS screen for small molecules that induce genotoxicity in human embryonic kidney (HEK293T) cells expressing luciferase-tagged ELG1; note: nearly all actives have a fitted effect of over 60% in size; for activity change, positive = activation: % of control where 0% means no effect
Settings: HEK293T ELG1-luciferase reporter, luminescence, 16 h; series mostly up to 46 µM; activity change, positive = activation: at the top concentration
Method in brief: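 Screening used a luciferase reporter fused to human ELG1 in HEK293T cells. Luminescence was read on a CCD plate imager after 16 hr exposure and 30 min ONE-Glo incubation.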
Potency is the fitted concentration of half-maximal effect; tags give direction and shape of the fitted curve.

SMILES | activity change, positive = activation | Potency
Cc1ccc(N2C(N)=C(C#N)C(c3cccs3)C3=C2CC(C)(C)CC3=O)cc1 (centres undefined) | inactive: -1.86% | 
N#C/C(=C\c1ccc(N2CCOCC2)cc1)c1ccccc1 |  | active: 4.11 µM
N#CC[C@H](c1ccccc1)N1CCN(Cc2ccccc2)CCC1=O | inactive: 2.17% | 
N#CC1(NC(=O)COc2ccc3ccc(=O)oc3c2)CCCCC1 |  | inconclusive: 5.8 µM [activator, full curve, poor fit]
O=C(N/N=C/c1cc([N+](=O)[O-])ccc1O)NC12CC3CC(CC(C3)C1)C2 |  | active: 14.6 µM
CC(C)NC(=O)N(C)C[C@H]1Oc2c(NC(=O)Nc3ccc4c(c3)OCO4)cccc2C(=O)N([C@H](C)CO)C[C@@H]1C | inactive: -3.15% | 
Cc1cc2c(NC(=O)Nc3ccccc3)cccc2nn1 |  | inconclusive: 20.6 µM [activator, single point]
Cc1ccc(-c2cc(C(=O)Nc3c(C)n(C)n(-c4ccccc4)c3=O)[nH]n2)c(O)c1 | inactive: -0.478% | 
O=C(Cn1cc2c(n1)CCCC2)NCc1cccc(Cl)c1 |  | inconclusive: 25.9 µM [activator, single point]
CCOc1ccc(Oc2nc(NCC(C)C)nc(OC)n2)nn1 |  | inconclusive: 23.1 µM [activator, partial curve]
COc1ccc(-n2c(C)cc(/C=C3\C(=O)NN(c4ccccc4)C3=O)c2C)cc1 |  | inconclusive: 25.9 µM [activator, partial curve, poor fit]
O=C(/C=C/c1ccccc1)Nc1cccnc1 |  | inconclusive: 4.47 µM [activator, partial curve, poor fit]
CC1CCCCN1C(=O)c1cc2c(=O)n3ccccc3nc2s1 (centres undefined) |  | inconclusive: 14.6 µM [activator, partial curve]
Cc1nc(N)sc1C(=O)Nc1ccccc1 |  | inconclusive: 14.6 µM [activator, partial curve, poor fit]
O=C(c1ccc(CNS(=O)(=O)c2ccc(Br)cc2)cc1)N1CCCC1 | inactive: 0.322% | 
Cc1ccc2nc(-c3ccc(Br)o3)oc(=O)c2c1 | inactive: 11% | 
Nc1c(C(=O)Nc2ccc(S(=O)(=O)N3CCCC3)cc2)sc2nc3cc4c(cc3cc12)CCC4 |  | inconclusive: 16.4 µM [activator, partial curve, poor fit]
COc1cc(OC)cc(-c2cc3cc(F)ccc3cn2)c1 |  | inconclusive: 8.2 µM [activator, partial curve]
CSCc1ccc(C(=O)Nc2cc(C)cc(C)c2)cc1 |  | inconclusive: 8.2 µM [activator, partial curve, poor fit]
COc1ccc(CC(=O)Nc2ccc(S(=O)(=O)NCC3CCCO3)cc2)cc1 (centres undefined) |  | inconclusive: 16.4 µM [activator, partial curve, poor fit]
CS(=O)(=O)n1nc(-c2ccc(Cl)cc2)nc1SCc1ccccc1 |  | active: 14.6 µM
Cc1ccc(C(=O)Nc2cc3c(oc2=O)CCCC3=O)cc1 |  | inconclusive: 13 µM [activator, partial curve, poor fit]
CN(C(=O)CSc1nnc(-c2ccco2)n1C)C1CCCCC1 | inactive: 1.79% | 
Cc1ccc2c(c1)CCCN2C(=O)c1cccs1 |  | inconclusive: 32.6 µM [activator, partial curve, poor fit]
Cc1ccc(N(Cc2ccccc2)C(=O)c2cccc(S(=O)(=O)N3CC(C)OC(C)C3)c2)cc1 (centres undefined) |  | inconclusive: 7.3 µM [activator, partial curve]

SMILES | activity change, positive = activation | Potency
O=C(COc1ccc(F)cc1)NCCN1CCCC1 | inactive: 1.64% | 
CN1CCN(c2ccc(-c3cccc(NC(=O)COc4ccccc4)c3)nn2)CC1 |  | active: 2.59 µM
O=C(NCCc1ccccc1)c1c(F)cccc1F |  | inconclusive: 7.3 µM [activator, partial curve]
O=C(NCCC1=CCCCC1)c1ccc(Cl)cc1 |  | inconclusive: 3.26 µM [activator, partial curve]
COc1ccccc1-c1nc(-c2ccccn2)no1 |  | inconclusive: 0.326 µM [activator, full curve, poor fit]
O=C(Nc1ccc(N2CCOCC2)c2nonc12)C1CCCC1 |  | inconclusive: 20.6 µM [activator, partial curve]
Cc1ccc(C(=O)N2CCN(C)CC2)cc1S(=O)(=O)N1CCCCCC1 | inactive: 9.46% | 
O=C(NCc1ccco1)c1cccc(C(F)(F)F)c1 | inactive: 1.2% | 
Cc1[nH]c2ccccc2c1/C=N/Nc1nc2ccccc2[nH]1 |  | inconclusive: 18.3 µM [activator, single point]
O=C1CC(c2ccccc2)CC2=C1C=Nc1ccccc1N2 (centres undefined) | inactive: -9.71% | 
Cc1ccc(/C(O)=C2/C(=O)C(=O)N(c3ccccn3)C2c2ccc([N+](=O)[O-])cc2)cc1 (centres undefined) | inactive: -0.0369% | 
N/C(=N\O)c1ccccc1N1CCCCC1 | inactive: -4.93% | 
Brc1ccc(-c2nc3ccccc3s2)s1 |  | inconclusive: 1.26 µM [activator, full curve, poor fit]
CC1CCC(NC(=O)COC(=O)c2ccco2)CC1 (centres undefined) | inactive: -4.28% | 
CCOC(=O)N1CCC(NC(=O)COc2cc(=O)n(C)c3ccccc23)CC1 |  | inconclusive: 16.4 µM [activator, partial curve, poor fit]
Cc1ccccc1-n1c(SCc2c(C)noc2C)nnc1-c1ccncc1 |  | inconclusive: 29.1 µM [activator, partial curve, poor fit]
Cc1ccc(N(C(=O)CNC(=O)c2ccco2)C(C(=O)NCC2CCCO2)c2ccccc2)c(C)c1 (centres undefined) | inactive: -27.2% | 
Cc1cc(C)n2nc(-c3ccc(Br)cc3)cc2n1 |  | inconclusive: 14.6 µM [activator, partial curve]
O=C(CN1C(=O)NC(c2ccccc2)(c2ccccc2)C1=O)NC1CCCCC1 | inactive: 3.15% | 
CC1CCCCN1CCCNC(=O)c1ccc2nc(N3CCCCC3)sc2c1 (centres undefined) |  | inconclusive: 0.13 µM [activator, full curve]
COCCCNC(=O)C1CCN(C(=O)c2oc3cc4sc(N(C)C)nc4cc3c2C)CC1 |  | inconclusive: 18.3 µM [activator, single point]
Cc1cccc(NC(=O)c2ccc(N3CCOCC3)c([N+](=O)[O-])c2)n1 | inactive: 16.7% | 
O=c1[nH]c2ccc(NS(=O)(=O)c3ccc([N+](=O)[O-])cc3)cc2[nH]1 | inactive: -1.48% | 
Cn1c(SCc2c(F)cccc2Cl)nnc1-c1cnccn1 |  | inconclusive: 18.4 µM [activator, single point]
O=C(Nc1nc2c(s1)CN(Cc1ccccc1)CC2)c1c(F)cccc1F |  | inconclusive: 20.6 µM [activator, partial curve, poor fit]

SMILES | activity change, positive = activation | Potency
O=C(Nc1cc(Cl)ccc1O)c1cc(-c2ccco2)on1 |  | active: 20.6 µM
CC1(C)CC(=O)C(C=Nc2ccc(C(=O)c3ccccc3)cc2N=CC2=C(O)CC(C)(C)CC2=O)=C(O)C1 | inactive: -8.57% | 
Cc1nc(SCc2nc3ccc(C(F)(F)F)cc3[nH]2)c2oc3ccccc3c2n1 | inactive: -6.41% | 
COc1ccc(C(=O)Nc2ccc(NC(=O)CSc3nnc(-c4ccncc4)n3C)cc2)cc1 |  | inconclusive: 23.1 µM [activator, single point]
CC1CCc2sc(-c3n[nH]c(=S)o3)cc2C1 (centres undefined) |  | inconclusive: 18.3 µM [activator, partial curve, poor fit]
O=C(Nc1ccc(Cl)cc1F)c1ccccc1Br |  | inconclusive: 9.2 µM [activator, partial curve]
CCCOC(=O)Nc1nc2ccccc2o1 |  | inconclusive: 9.2 µM [activator, single point]
CC(=O)c1cc(-c2ccccc2)n(CC(=O)NCc2cccs2)c1C | inactive: 1.4% | 
O=C1C(Cl)=C(NCC2CCCO2)C(=O)N1CCc1ccccc1 (centres undefined) |  | inconclusive: 14.6 µM [activator, partial curve, poor fit]
COc1ccc(CNn2c(-c3cccc(C)c3)nc3ccccc3c2=O)cc1OC | inactive: -10.5% | 
CN1/C(=C/C(=O)C2CCC2)Sc2ccccc21 |  | inconclusive: 20.6 µM [activator, partial curve, poor fit]
CC(C#N)Sc1ccc(S(=O)(=O)N(C)C2CCCCC2)cn1 (centres undefined) | inactive: -2.47% | 
COc1ccc2c(c1)c1nc3n(c(=O)c1n2CC(=O)Nc1ccccc1)CCCS3 | inactive: 8.37% | 
CNC(=O)/C(C#N)=C/c1c(N2CC(C)OC(C)C2)nc2ccccn2c1=O (centres undefined) | inactive: 2.07% | 
Cn1c(SCc2cccc(F)c2)nnc1-c1cnccn1 |  | inconclusive: 13 µM [activator, partial curve, poor fit]
C(=N\Nc1ccccc1)/c1ccc(N2CCOCC2)cc1 |  | inconclusive: 13 µM [activator, partial curve, poor fit]
COc1ccc(NC(=O)Nc2ncccc2C)cc1 |  | inconclusive: 20.6 µM [activator, single point]
Cc1ccsc1/C=N/N=C/c1sccc1C |  | inconclusive: 4.11 µM [activator, full curve]
Cc1cc(=O)[nH]c(N/N=C/C=C/c2ccccc2)n1 | inactive: -0.852% | 
COc1ccc(NC(=O)c2ccc(NC(=O)c3cccs3)cc2)cc1 |  | active: 20.6 µM
Cc1oncc1C(=O)Nc1ccc(C(F)(F)F)cc1 |  | inconclusive: 16.4 µM [activator, partial curve]
Cc1ccc(S(=O)(=O)N2CCN(C(=O)CC(C)C)CC2)cc1 |  | inconclusive: 16.4 µM [activator, partial curve]
N#Cc1nc(Cc2ccccc2)oc1NCCc1ccccc1 |  | inconclusive: 23.1 µM [activator, partial curve, poor fit]
O=C(NCc1cc(F)ccc1F)C1CCC(=O)N(C2CCCCCC2)C1 (centres undefined) |  | inconclusive: 18.3 µM [activator, partial curve]
